Experimental data published in publication PMC4336329 (PLoS ONE, 2015).
About 14,000 (4.5%) of roughly 310,000 compounds showed an effect of 50% or more. The effect is printed as a negative number. The list shows a part of the results.

What follows are molecules tested against human ether-à-go-go-related gene (hERG) potassium channel (human, UniProt Q12809) (assay: primary screen, population patch clamp on CHO cells stably expressing hERG).
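Further: peak tail current of the secondary pulse compared with the same well before compound.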

Sequence of human ether-à-go-go-related gene (hERG) potassium channel (Q12809 whole entry, looked up): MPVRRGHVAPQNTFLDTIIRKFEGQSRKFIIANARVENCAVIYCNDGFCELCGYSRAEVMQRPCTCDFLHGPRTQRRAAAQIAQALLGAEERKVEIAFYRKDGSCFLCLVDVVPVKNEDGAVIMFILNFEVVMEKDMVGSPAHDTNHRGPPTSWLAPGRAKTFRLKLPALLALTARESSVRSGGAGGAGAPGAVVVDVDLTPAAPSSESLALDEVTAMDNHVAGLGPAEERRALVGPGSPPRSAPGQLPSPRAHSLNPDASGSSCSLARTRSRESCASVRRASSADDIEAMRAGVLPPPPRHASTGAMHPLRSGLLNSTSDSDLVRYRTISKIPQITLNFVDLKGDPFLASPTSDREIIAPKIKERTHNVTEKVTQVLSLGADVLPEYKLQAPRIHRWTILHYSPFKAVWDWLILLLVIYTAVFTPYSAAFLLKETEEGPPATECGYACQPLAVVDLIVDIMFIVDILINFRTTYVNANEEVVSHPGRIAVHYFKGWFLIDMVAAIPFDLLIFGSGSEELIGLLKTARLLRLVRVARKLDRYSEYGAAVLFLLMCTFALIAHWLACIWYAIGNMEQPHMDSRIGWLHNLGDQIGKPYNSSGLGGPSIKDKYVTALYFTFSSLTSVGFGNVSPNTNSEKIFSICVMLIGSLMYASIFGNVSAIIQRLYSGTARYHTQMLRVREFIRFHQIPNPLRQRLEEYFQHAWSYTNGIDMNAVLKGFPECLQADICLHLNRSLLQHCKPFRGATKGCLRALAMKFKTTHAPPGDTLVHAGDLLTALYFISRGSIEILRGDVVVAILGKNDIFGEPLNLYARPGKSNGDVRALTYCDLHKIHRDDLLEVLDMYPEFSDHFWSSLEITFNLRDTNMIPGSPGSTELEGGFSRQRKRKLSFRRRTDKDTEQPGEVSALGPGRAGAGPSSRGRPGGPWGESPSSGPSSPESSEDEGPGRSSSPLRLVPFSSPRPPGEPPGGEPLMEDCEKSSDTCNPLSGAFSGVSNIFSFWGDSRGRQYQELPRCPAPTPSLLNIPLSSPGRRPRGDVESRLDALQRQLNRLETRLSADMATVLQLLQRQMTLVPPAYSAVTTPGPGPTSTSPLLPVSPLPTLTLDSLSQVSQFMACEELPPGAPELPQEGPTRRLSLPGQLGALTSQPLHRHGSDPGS

| Structure (SMILES) | hERG current change (%, negative = inhibition) at 10uM [%] |
| --- | --- |
| Cn1c(N)c(N=O)c(=O)n(C)c1=O | 12.3 |
| COc1ccc2nc(C)c3c(c2c1)OC(C)C3 (centres unmarked) | -34.1 |
| CCc1cc(CN2CCOCC2)c(NC(=O)c2ccccc2)s1 | -25.9 |
| CCc1cc(=O)oc2c(C)c(OC(C)C(=O)NCCCn3ccnc3)ccc12 (centres unmarked) | -20.8 |
| Cc1ccc(NC(=O)CCNS(=O)(=O)c2ccc3[nH]c(=O)oc3c2)cc1 | 7.37 |
| Cc1ccc(C(C)C)c(OCC(=O)Nn2c(C)nc3ccccc3c2=O)c1 | -29.5 |
| CC1(C)c2ccccc2N2CC(=O)NC21/C=C/c1ccco1 (centres unmarked) | 2.9 |
| Cc1c([N+](=O)[O-])cc(C(=O)Nc2ccc3ncccc3c2)cc1[N+](=O)[O-] | 17 |
| O=C(c1ccc(N2CCN(C3CC(=O)N(Cc4cccs4)C3=O)CC2)cc1)c1cccnc1 (centres unmarked) | -73.5 |
| COc1ccc(S(=O)(=O)N2CCC(C)CC2)cc1Br | -16.7 |
| COc1ccc(OC)c(NC(=O)CC2SC(=N)N(c3ccccc3)C2=O)c1 (centres unmarked) | -6.01 |
| COc1ccc(/C(O)=C2/C(=O)C(=O)N(CCN(C)C)C2c2ccc(OC)c(OC)c2)c(C)c1 (centres unmarked) | 11 |
| Fc1ccc(-c2nnc(CSc3nnc(-c4ccc5c(c4)OCO5)o3)o2)cc1 | -7.12 |
| C#CCOCCOCCOCCNc1nc(N2CCN(C(=O)CCCCCCCCCCNC(=O)Cn3cc(C[C@@H](C)O)nn3)CC2)nc(N2CCN(C(=O)CCCCCCCCCCNC(=O)[C@@H]([C@H](C)O)n3cc(C)nn3)CC2)n1 | 13.1 |
| CCOC(=O)C1=NN(C(C)=O)C2(CC(=O)N(c3ccc(C)c(C)c3)C2=O)C1 (centres unmarked) | -9.76 |
| Cc1cc2c(=O)[nH]cnc2s1 | 21.7 |
| CC(C)(C)OCC(O)C[NH+]1CCN(C(=O)c2ccccc2)CC1.O=C([O-])C(=O)[O-] (centres unmarked) | 6.92 |
| Cc1nc2cc([N+](=O)[O-])ccc2c(=O)n1-c1cccc(Br)c1 | -42.1 |
| CCOc1cc(S(=O)(=O)NC2CCCCC2)ccc1F | 0.571 |
| Clc1ccc(-c2nc3n(n2)Cc2ccccc2-3)cc1 | -1.39 |
| O=C(CNC1CCCC1)Nc1ccc(S(=O)(=O)N2CCCCC2)cc1 | -0.797 |
| O=C(CN1CCC(N2CCCCC2)CC1)N1CCOCC1.O=C(O)C(=O)O | 36.2 |

| Structure (SMILES) | hERG current change (%, negative = inhibition) at 10uM [%] |
| --- | --- |
| Cc1cc(/C=C2/SC(=O)NC2=O)c(C)n1-c1ccc(N2CCOCC2)cc1 | 11.6 |
| COC(=O)c1cc(OC)c(OC)cc1NC(=O)CCCCCN1C(=O)CCC1=O | 21.7 |
| COc1ccc(CNC(=O)C(CCSC)NC(=O)c2ccco2)cc1 (centres unmarked) | -11.9 |
| CC(Cc1cccs1)NCc1ccccc1 (centres unmarked) | 4.35 |
| CC(=O)Nc1ccc(S(=O)(=O)c2ccc(N)cc2)cc1N | 1.67 |
| COc1ccc(C(=O)NCc2nnc(SCC(=O)Nc3nc4ccc(C)cc4s3)o2)cc1OC | 4.72 |
| N#CC1=C(N)OC2=C(C(=O)CCC2)C1C1C=CCCC1 (centres unmarked) | -1.76 |
| C/C(=N\NC(=O)c1ccc(Br)cc1)c1cccnc1 | 5.22 |
| CC(C)CN1C(=O)c2ccccc2C1(O)Cc1ccccc1 (centres unmarked) | 2.19 |
| C#CCOCCOCCOCCNc1nc(N2CCN(C(=O)[C@H](Cc3ccc(O)cc3)n3cc([C@@H](N)CC(C)C)nn3)CC2)nc(N2CCN(C(=O)[C@H](Cc3ccc(O)cc3)n3cc([C@@H](N)CC(C)C)nn3)CC2)n1.Cl | 1.28 |
| NC(=O)CSc1nc2cc([N+](=O)[O-])ccc2n1-c1cccc(C(F)(F)F)c1 | -69.9 |
| CC12C(=O)N(c3ccccc3)C(=O)C1C(c1ccccc1)N1CCCN12 (centres unmarked) | 13 |
| CCOC(=O)c1sc(/N=C/c2c(C)[nH]n(-c3ccccc3)c2=O)c(C#N)c1C | -9.84 |
| O=C(N/N=C/c1ccc(OC(=O)c2cccs2)cc1)c1ccc(F)cc1 | 10 |
| O=C(c1cccc(S(=O)(=O)Nc2ccc(Br)cc2)c1)N1CCC1 | 2 |
| COc1ccc(Sc2cnn(-c3ccccc3)c(=O)c2Cl)cc1 | -15.7 |
| CCCOc1ccc(C2=NNC(c3cccs3)=Nc3ccc(OC)cc32)cc1 | 1.25 |
| COc1cc(NC(=O)c2cc3cccc(OC)c3o2)cc(C(=O)Nc2cccc(C(F)(F)F)c2)c1 | 14.8 |
| CC(=O)Nc1ccc(C(=O)N/N=C/C2CC3C=CC2C3)cc1 (centres unmarked) | 16 |
| O=C(C(c1ccccc1)c1ccccc1)N1CCN(CCN2C(=O)c3cccc4cccc(c34)C2=O)CC1 | -4.74 |
| O=C(Nc1cccnc1)c1ccc(Br)c(S(=O)(=O)N2CCCC2)c1 | 22.1 |
| CCOC(=O)CNC=C(C(=O)OCC)C(=O)OCC | 16.7 |

| Structure (SMILES) | hERG current change (%, negative = inhibition) at 10uM [%] |
| --- | --- |
| Cc1cccc(NC(=S)NC(C)CCc2ccccc2)c1 (centres unmarked) | -4.89 |
| CCNC(=O)Cc1ccc(NS(=O)(=O)c2ccc(F)cc2)cc1 | -2.15 |
| Cc1cccc(N2CCN(C(=O)c3ccc(CS(=O)Cc4ccc(Cl)cc4)o3)CC2)c1C (centres unmarked) | -57 |
| CCN(CC)S(=O)(=O)c1ccc(C)c(C)c1 | -3.69 |
| CCOP(=O)(OCC)C(NC(=O)Nc1ccc(Cl)c(Cl)c1)C(N)=O (centres unmarked) | 12.7 |
| Cc1ccc(N(CC(=O)NCCc2ccccc2)C(=O)c2csnn2)cc1 | -15.4 |
| Cc1[nH]n(-c2ccc(Cl)cc2)c(=O)c1N=Nc1cccnc1 | -5.19 |
| CC(C)n1c(O)c(N=Nc2ccccn2)c2ccccc21 | -8.08 |
| Cc1ccccc1CNC(=O)CCc1ccccc1 | 11.7 |
| CC(=O)c1ccc(C(=O)N2CCCC(N3CCN(c4ccc(F)cc4)CC3)C2)s1 (centres unmarked) | -63.7 |
| O=C(NCCNc1ccc([N+](=O)[O-])cc1)c1cccc(Br)c1 | -1.98 |
| CC(c1ccccc1C(O)c1ccccc1)N(C)C.Cl (centres unmarked) | 2.22 |
| COc1ccc(/C=N/NC(=S)N[C@H]2CC3CCC2C3)cc1 (some centres unmarked) | 7.65 |
| Cc1cc(C)c(C)c(C(=O)COC(=O)CNC(=O)CNC(=O)c2ccco2)c1C | 0.304 |
| COc1ccc(CCC(=O)Nc2ccc3c(c2)OCO3)cc1 | 2.6 |
| COc1ccc(C(O)P(=O)(OC(C)C)OC(C)C)c(OC)c1 (centres unmarked) | 22.6 |
| C=CCNC(=O)COc1ccc(Br)cc1Cl | -20.6 |
| O=C(CSc1nnc2c3ccccc3c3ccccc3c2n1)Nc1ccccc1F | 6.85 |
| CCCC(=O)Nc1ccc(-c2ccc(NC(=O)CCC)cc2)cc1 | 3.77 |
| Br.O=C(CN1CCCCC1CO)c1ccc(OC(F)F)cc1 (centres unmarked) | -68.2 |
| COc1ccc(S(=O)(=O)N2CCN(C)CC2)cc1Br | -0.633 |
| CCOc1ccc(CCNC(=O)C2CCN(c3nnc(-n4cccc4)s3)CC2)cc1OCC | -35.7 |

| Structure (SMILES) | hERG current change (%, negative = inhibition) at 10uM [%] |
| --- | --- |
| CCN1CC=C2C(C#N)=C(N)C(C#N)(C#N)C(c3cc(Cl)ccc3Cl)C2C1 (centres unmarked) | -29.2 |
| CCOc1ccccc1-c1noc(CCC(=O)NC2CCCCC2)n1 | 5.71 |
| CC1CCN(S(=O)(=O)c2nnc(NC(=O)COc3ccccc3)s2)CC1 | 23.2 |
| CCC(=O)N(C)CCc1cc2c(c(OC)c1/C=N/NS(=O)(=O)c1ccc(C)cc1)OCO2 | -8.34 |
| CC(=O)Nc1ccc(/C=N/NC(=S)NC(C)C)cc1 | 21.3 |
| Cc1ccc2c(c1)C1CN(C)CCC1N2C(=O)COc1ccc(N(C)C(=O)c2ccccc2)cc1 (centres unmarked) | -11.6 |
| CCSc1nc2c(c(=O)[nH]1)C(c1ccncc1)C(C(=O)OC)=C(C)N2 (centres unmarked) | 3.28 |
| CCOC(=O)Cc1csc(NC(=O)c2cc(=O)c3ccccc3o2)n1 | -12.3 |
| Cc1ccc(S(=O)(=O)NC(Cc2ccccc2)C(=O)NN)cc1 (centres unmarked) | 10 |
| Cc1c(C(=O)N/N=C/c2ccccn2)nnn1-c1nonc1N | -15.6 |
| Cc1cc(Nc2ccccc2C(=O)O)n(-c2cccc(Cl)c2)n1 | 14.6 |
| COc1ccc(/C=C/C2=NN(Cc3ccccc3)C(=O)CC2)cc1 | -15.5 |
| Cn1ncc([N+](=O)[O-])c1C(=O)N/N=C/c1cccc([N+](=O)[O-])c1 | 11.5 |
| COc1cc(Cl)cc(NC(=O)CCN2CCN(C)CC2)c1 | -37 |
| COC(=O)c1c(N2C(=O)CCC2=O)sc2c1CCCC2 | 1.42 |
| Cc1ccc(C2(C)NC(=O)N(CC(=O)Nc3ccccc3C(=O)N3CCCCC3)C2=O)cc1 (centres unmarked) | 6.74 |
| Cc1cc(NS(=O)(=O)c2ccc(NC(=O)COc3ccccc3C(C)(C)C)cc2)no1 | 11.3 |
| CC1=C(C(=O)Nc2ccccc2)C(c2ccccc2)N2C(=O)CSC2=N1 (centres unmarked) | 3.09 |
| CCOc1ccc(Br)cc1S(=O)(=O)N1CCC(C(N)=O)CC1 | -8.56 |
| COc1c(F)c(F)c(C(=O)O)c(Nc2ccc(C)cc2C)c1F | 18.8 |
